According to the supplement of paper PMC11060735:
Structures can show the parent of a compound that is named as a salt. In all, about 1,800 compounds went through this assay and about 50 (3%) showed activity. This is one part of the list.

What follows are compounds tested on mouse p16Ink4a+/- lung fibroblasts (INKBRITE, bleomycin-injured) (assay: percentage of GFP+ (p16Ink4a+) fibroblasts among all cells in well; higher = less depletion of p16Ink4a+ cells, active = 20 or less). Settings: 1 µM; 3 days.
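Note: fibroblasts sorted 14 days after bleomycin, GFP+ and GFP− mixed 1:1 in 384-well plates (GFP− as in-well control), imaged after Hoechst and NucView530 staining, reference wells lacked compound.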

Structure (SMILES) | percentage of GFP+
Cc1ccc(S(=O)(=O)NC(=O)NN2CC3CCCC3C2)cc1 (stereo unspecified) [Gliclazide] | inactive: 38%
COc1ccc(NS(=O)(=O)c2ccc(N)cc2)nn1 [Sulfamethoxypyridazine] | inactive: 48.1%
CC1=C(C(=O)Nc2cc3c[nH]nc3cc2F)C(c2ccc(C(F)(F)F)cc2)CC(=O)N1 (stereo unspecified) | inactive: 38.2%
Clc1ccc2nsnc2c1NC1=NCCN1 [Tizanidine] | inactive: 36.5%
COc1cc2nc(N3CCCN(C)CC3)nc(NC3CCN(Cc4ccccc4)CC3)c2cc1OC | inactive: 50.9%
CN(C)CCc1c[nH]c2ccc(Cn3cncn3)cc12 [Rizatriptan] | inactive: 46.7%
OC[C@H]1O[C@@H](Oc2ccc(O)cc2)[C@H](O)[C@@H](O)[C@@H]1O [Arbutin] | inactive: 39.7%
O=C(O)c1cc2cccc([N+](=O)[O-])c2[nH]1 | inactive: 46.7%
COc1cc2c(Nc3ccc(Br)cc3F)ncnc2cc1OCC1CCN(C)CC1 [Vandetanib] | inactive: 50.9%
O=C1O[C@H]([C@@H](O)CO)C(O)C1O (stereo partly specified) [Sodium ascorbate] | inactive: 52.2%
CC(C)(C)C#Cc1cc(N(C(=O)[C@H]2CC[C@H](C)CC2)[C@H]2CC[C@@H](O)CC2)c(C(=O)O)s1 [Lomibuvir] | inactive: 41.8%
CCOc1cc(CC(=O)N[C@@H](CC(C)C)c2ccccc2N2CCCCC2)ccc1C(=O)O [Repaglinide] | inactive: 45.1%
O=C(O)c1cc(=O)[nH]c(=O)[nH]1 [Orotic Acid] | inactive: 37.4%
COc1cc(CCC(C)=O)ccc1O [Vanillylacetone] | inactive: 46.6%
N=C(N)Nc1ccc(C(=O)Oc2ccc3cc(C(=N)N)ccc3c2)cc1 [Nafamostat] | inactive: 41.7%
CC1=CC(=O)NS(=O)(=O)O1 [Acesulfame Potassium] | inactive: 42.7%
O=C(O)CCCc1ccccc1 [Gamma-Phenyl-Butyric Acid] | inactive: 45%
CC(C)[C@H]1C(=O)N[C@@H](CCCN=C(N)N)C(=O)NCC(=O)N[C@@H](CC(=O)O)C(=O)N[C@H](Cc2ccccc2)C(=O)N1C [Cilengitide] | inactive: 46.7%

Structure (SMILES) | percentage of GFP+
Cc1cc(Nc2nc(N[C@@H](C)c3ccc(F)cc3)c(C#N)cc2F)n[nH]1 | inactive: 28.1%
Cc1ccc(C(=O)N(CCCN)[C@@H](c2nc3cc(Cl)ccc3c(=O)n2Cc2ccccc2)C(C)C)cc1 [Ispinesib] | inactive: 31.3%
Oc1ccc2ccccc2c1SSc1c(O)ccc2ccccc12 | inactive: 48.4%
Cc1ccccc1CN1C2=NCCN2C(=O)C2=C1CCN(Cc1ccccc1)C2 | inactive: 51.8%
CCOC(=O)[C@H](CCc1ccccc1)N[C@@H](C)C(=O)N1CCC[C@H]1C(=O)O [Enalapril] | inactive: 46%
O=C(Oc1ccccc1C(=O)O)c1ccccc1O [Salsalate] | inactive: 49%
Cc1ncc([N+](=O)[O-])n1CCO [Metronidazole] | inactive: 36.8%
COc1cc(C(C)=O)ccc1O [Apocynin] | inactive: 38%
C=C(c1ccc(C(=O)O)cc1)c1cc2c(cc1C)C(C)(C)CCC2(C)C [Bexarotene] | inactive: 46%
COc1ccc(COc2ccc(Cc3cnc(N)nc3N)cc2OC)cc1 | inactive: 33.4%
COc1ccc(NS(=O)(=O)c2sc3ccc(Cl)cc3c2C)cc1N1CCNCC1 | inactive: 59.1%
C=C1/C(=C/C=C2\CCC[C@]3(C)[C@@H]([C@H](C)/C=C/[C@@H](C)C(C)C)CC[C@@H]23)C[C@@H](O)C[C@@H]1O [Doxercalciferol] | inactive: 21.2%
CCn1c(N)c(C(=O)NC)c(=O)c2ccc(C#C[C@@](C)(O)COC)nc21 | inactive: 41.5%
CCN1CCN(C(=O)N[C@@H](C(=O)N[C@@H]2C(=O)N3[C@@H]2SC(C)(C)[C@@H]3C(=O)O)c2ccccc2)C(=O)C1=O [Piperacillin] | inactive: 50.6%
C[C@@H]1COCCN1c1cc(C2(S(C)(=O)=O)CC2)nc(-c2cccc3[nH]ccc23)n1 | inactive: 30.4%
O=C(O)c1cc(=O)c2ccccc2o1 [Chromocarb] | inactive: 50.4%
CN(C[C@@H]1COCCO1)S(=O)(=O)Nc1ccc2ccc3ncc(-c4cnn(C)c4)cc3c(=O)c2c1 | inactive: 47.7%
CCCc1nn(C)c2c(O)nc(-c3cc(S(=O)(=O)N4CCN(C)CC4)ccc3OCC)nc12 [Sildenafil, Sildenafil Citrate] | inactive: 52.3%
